According to the RNAGym collection of RNA variant scans (doi:10.1101/gad.245936.114):
Variants at the floor of the assay are shown more often than the library holds them.

B1: tRNA (parent)
chain: CUCUCGGUAGCCAAGUUGGUUUAAGGCGCAAGACUUUAAUUUAUCACUACGAAAUCUUGAGAUCGGGCGUUCGACUCGCCCCCGGGAGAUUUUUUCCUCGAGCAA

Variants of: B1
Assay: nonsense suppression (GFP-seq) (ratio to wild type); higher = more function; SUP4oc tRNA, yeast GFP reporter sort-seq
In short: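 Sorted GFP/RFP bins of yeast were each Illumina-sequenced with a phred ≥30 cutoff; the cells held a genome-integrated ochre-suppressor tRNA variant from a library with ~3% random mutations, a galactose-driven GFP ochre reporter, and RFP. Culture was in raffinose/galactose medium containing 80 mg/L adenine. Nonsense suppression, termed GFPSEQ, is the median GFP/RFP of the bins weighted by each variant's estimated cell share per bin, relative to the unmutated parent tRNA, for variants reaching ≥100 reads and ≥30 cells.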

Nonsense suppression, 0.0265:
CUCUCGGUAGCCAAGUUGGUUUAAGGCGAAAGACUUUAAUUUAUCACUACGAAAUCUUGAGAUCGGGCGUUCGAUUCGCCCCCGGGAGAUUUUUUCCUCGAGCAA [C29A C75U]

Nonsense suppression, 0.113:
CUCUCGGUAGCCAAGUUGGUUUAAGGCGAAAGACUUUAAUUUAUCACUACGAAAUCUUGAGAUCGGGCGUUCGACUCGCCCCCGGGAGAUUUUUUCCUCGAGCAA [C29A]

Nonsense suppression, 0.0435:
CUCUCGGUAGCCAAGUUGGUUUAAGGCUCAAGACUUUAAUUUAUCACUACGAAAUCUUGAGAUCGGGCGUUCGACUCUCCCCCGGGAGAUUUUUUCCUCGAGCAA [G28U G78U]

Nonsense suppression, ≤ 0.026:
CUCUCGGUAGCCAAGUUGGUUUAAGGCUCAAGACUUUAAUUUAUCACUACGAAAUCGUGAGAUCGGGCGUUCGACUCACCCCCGGGAGAUUUUUUCCUCGAGCAA [G28U U57G G78A]
CUCUCGGUAGCCAAGUUGGUUUAAGGCGAAAGGCUUUAAUUUAUCACUACGAAAUCUUGAGAUCGGGCGUUCGACUCGCCCCCGGGCGAUUUUUUCCUCGAGCAA [C29A A33G A87C]
CUCUCGGUAGCCAAGUUGGUUUAAGGCGAAAUACUUUAAUUUAUCACUACGAAAUCUUGAGAUCGAGCGUUAGACUCGCCCCCGGGAGAUUUUUUCCUCGAGCAA [C29A G32U G66A C72A]
CUCUCGGUAGCCAAGUUGGUUUAAGGCGAAAGACUUUAAUUUAUCACUACGAAAUCUUGAGAUCGGGCGUUCGACUCGCCCCCAGGACAUUUUUUCCUCGAGCAA [C29A G84A G88C]
CUCUCGGUAGCCAAGUUGGUUUAAGGCUCAAGACUUUAAUUUAUCACUACGAAAUCUUGAGACCGGGCGUUCGACUCCCCCCGGGGAGAUUUUUUCCUCGAGCAA [G28U U63C G78C C83G]
CUCUCGGUAGCCAAGUUGGUUUAAGGCUCAAGACUUUAAUUUAUCACUACGAAAUCUUGAGAUCGGGCUAUCGACUCGCCCCCGGGAGAUUUUUUCCUCGAGCAA [G28U G69U U70A]
CUCUCGGUAGCCAAGUUGGUUUAAGGCGAAAGACUUUAAUUUAUCACUACGAAAUCUUGAGAUCGGGCGUUCUACUCGCCACCGGGAGAUUUUUUCCUCGAGCAA [C29A G73U C81A]
CUCUCGGUAGCCAAGUUGGUUUAAGGCGAAAGACUUUAAUUUAUCACUACGAAAUCUUGAGAUCGGUCGUUCGACUCGCCCCCGGGAGAUUUUUUCCUCGAGCAA [C29A G67U]
CUCUCGGUAGCCAAGUUGGUUUAAGGCGAAUGAAUUUAAUUUAUCACUACGAAAUCUUGAAAUCGGGCGUUCGACGCGCCCCCGGGAGAUUUUUUCCUCGAGCAA [C29A A31U C34A G61A U76G]
CUCUCGGUAGCCAAGUUGGUUUAAGGCGAAAGACUUUAAUUUAUCACUACGAAAUCUUGAGAUCGGGCGUUCCACUCGCCCCCUGGAGAUUUUUUCCUCGAGCAA [C29A G73C G84U]
CUCUCGGUAGCCAAGUUGGUUUAAGGCGAAAGACUUUAAUUUAUCACUACGAAAUCUUGAGAUCGGGCGUUCGACUCGCCCACGGGAGAUUUUUUCCUCGAGCAA [C29A C82A]
CUCUCGGUAGCCAAGUUGGUUUAAGGCGAAAGACUUUAAUUUAUCACUACGAAAUUUUGAGAACGGGCGUUCGACUCGCCCCCGGGAGAUUUUUUCCUCGAGCAA [C29A C56U U63A]
CUCUCGGUAGCCAAGUUGGUUUAAGGCGAAAGACUUUAAUUUAUCACUACGAAAUCUUGAGUUCGGGCGUUCGACUCGCCCCGGGGAGAUUUUUUCCUCGAGCAA [C29A A62U C83G]
CUCUCGGUAGCCAAGUUGGUUUAAGGCGAAAGACUUUAAUUUAUCACUACGAAAUCUUGAGAUCGGGCGUUCGACUCGCCGCCGGGAGAUUUUUUCCUCGAGCAA [C29A C81G]
CUCUCGGUAGCCAAGUUGGUUUAAGGCGAAAGACUUUAAUUUAUCACUACGAAAUCUUGAGAUCGGGCGUUCGACUCCCCGCCGAGAGAUUUUUUCCUCGAGCAA [C29A G78C C81G G85A]
CUCUCGGUAGCCAAGUUGGUUUAAGGCGAACGACUUUAAUUUAUCACUACGAAAUCUUGAGGUCGGGCUUUCGACUCGCCCCCGGGCGAUUUUUUCCUCGAGCAA [C29A A31C A62G G69U A87C]
CUCUCGGUAGCCAAGUUGGUUUAAGGCGAAAGACUUUAAUUUAUCACUACGAAAUCUUGAGAUUGGGCGUUCGACUCGCCCCCGGGAGAUUUUUUCCUCGAGCAA [C29A C64U]
CUCUCGGUAGCCAAGUUGGUUUAAGGCGAAAGACUUUAAUUUAUCACUACGAAUUCUUGACAUCGGGCGUUCGACUCGCCCCCGGGAGAUUUUUUCCUCGAGCAA [C29A A54U G61C]
CUCUCGGUAGCCAAGUUGGUUUAAGGCUCAAGACUUUAAUUUAUCACUACGAAAUCUUGAGAUCGGGCGUUCGACUCGCCCCCGGCAGCUUUUUUCCUCGAGCAA [G28U G86C A89C]
CUCUCGGUAGCCAAGUUGGUUUAAGGCGAAAGGCUUUAAUUUAUCACUACGAAACCUUGAGAUCGGGCGUUCGACUCGCCCCCGGGAGAUUUUUUCCUCGAGCAA [C29A A33G U55C]
CUCUCGGUAGCCAAGUUGGUUUAAGGCUCAAGACUUUAAUUUAUCACUACGAAAUCUUGAGAUCGUGCGUUCGACUCGCCCCCGGGAGAUUUUUUCCUCGAGCAA [G28U G66U]
CUCUCGGUAGCCAAGUUGGUUUAAGGCGAAAGACUUUAAUUUAUCACUACGAAAUCUUGAGAUCGGGCGUUAGACUCGCCCCCGGGAGAUUUUUUCCUCGAGCAA [C29A C72A]
CUCUCGGUAGCCAAGUUGGUUUAAGGCGAAUGACUUUAAUUUAUCACUACGAAAUCUUGAGAUCGGGCGUUCGACUCGCCCCCGGGAGAUUUUUUCCUCGAGCAA [C29A A31U]
CUCUCGGUAGCCAAGUUGGUUUAAGGCGAACGACUUUAAUUUAUCACUACGAAAUCUUGAGAUCGGGCGUUCGACUCGCCCCCGGGAGAUUUUUUCCUCGAGCAA [C29A A31C]
CUCUCGGUAGCCAAGUUGGUUUAAGGCUCAAGACUUUAAUUUAUCACUACGAAAUCUUGAGAUCGGGCGUUCCAGUCGCCCCCGGGAGAUUUUUUCCUCGAGCAA [G28U G73C C75G]
CUCUCGGUAGCCAAGUUGGUUUAAGGCGAAAGUCUUUAAUUUAUCACUACGAAAUCUUGAGACCGGGCGUUCGACUCGCCCCCGGGAGAUUUUUUCCUCGAGCAA [C29A A33U U63C]
CUCUCGGUAGCCAAGUUGGUUUAAGGCGAAAGACUUUAAUUUAUCACUACGAAAACUUGAGAUCGUGCAUUCGACUCGCCCCCGGGACAUUUUUUCCUCGAGCAA [C29A U55A G66U G69A G88C]
CUCUCGGUAGCCAAGUUGGUUUAAGGCGAAAGACUUUAAUUUAUCACUACGAAAUCUUGAGAUCGGUCGUUCGACUCGCCCCCGGGCGAUUUUUUCCUCGAGCAA [C29A G67U A87C]
CUCUCGGUAGCCAAGUUGGUUUAAGGCGAAAGACUUUAAUUUAUCACUACGAAAUCUUGAGGUCGGGCGUUCGACUCGCCCCCGGGAGAUUUUUUCCUCGAGCAA [C29A A62G]
CUCUCGGUAGCCAAGUUGGUUUAAGGCGAAAGAGUUUAAUUUAUCACUACGAAAUCUUGAGAUCGGGCGUUCGACUCGCCCUCGGGGGAUUUUUUCCUCGAGCAA [C29A C34G C82U A87G]
CUCUCGGUAGCCAAGUUGGUUUAAGGCGAAAGACUUUAAUUUAUCACUACGAAAUCUUGAGAUCGGGCGUUCGACUCCCCCCCGGGAGAUUUUUUCCUCGAGCAA [C29A G78C]
CUCUCGGUAGCCAAGUUGGUUUAAGGCGACAGACUUUAAUUUAUCACUACGAAAUCUUGAGAUCGGGCGUUCGACUCGCCCCCGGGAGAUUUUUUCCUCGAGCAA [C29A A30C]
CUCUCGGUAGCCAAGUUGGUUUAAGGCGAAAGACCUUAAUUUAUCACUACGAAAUCUUGAGAUCGGGCGCUCGACCCGCCCCCGGGAGAUUUUUUCCUCGAGCAA [C29A U35C U70C U76C]
CUCUCGGUAGCCAAGUUGGUUUAAGGCGAAAGAAUUUAAUUUAUCACUACGAAAUCUUGAGCUCGGGCGUUCGACUCGCCCCCGGGAGAUUUUUUCCUCGAGCAA [C29A C34A A62C]
CUCUCGGUAGCCAAGUUGGUUUAAGGCGAAAGACUUUAAUUUAUCACUACGAAAUCUUGAGAUCGAGCGUUCGACUCGACCCCGAGAGAUUUUUUCCUCGAGCAA [C29A G66A C79A G85A]
CUCUCGGUAGCCAAGUUGGUUUAAGGCGAAAGAGUUUAAUUUAUCACUACGAAAUCUUUAGAUCGGGCGUCCGACUCGCCCCCGGGAGAUUUUUUCCUCGAGCAA [C29A C34G G59U U71C]
CUCUCGGUAGCCAAGUUGGUUUAAGGCGAAAGACUUUAAUUUAUCACUACGAAAUCUUGAGAUCGGGCGUUAGACACGCCCCCGGGAGAUUUUUUCCUCGAGCAA [C29A C72A U76A]
CUCUCGGUAGCCAAGUUGGUUUAAGGCGAAAGGCUUUAAUUUAUCACUACGAAAUCUUGACAUCGGGCGUUCGACUCGCCCCCGGGAUAUUUUUUCCUCGAGCAA [C29A A33G G61C G88U]
CUCUCGGUAGCCAAGUUGGUUUAAGGCGAAAGACUUUAAUUUAUCACUACGAAAUCUUGAGAUUGGGCGUUCGACUCGCCCCCAGGAGAUUUUUUCCUCGAGCAA [C29A C64U G84A]
CUCUCGGUAGCCAAGUUGGUUUAAGGCGAAAGACUUUAAUUUAUCACUACGAAAUCUUGAGAUUGGGCGUUCGACUCGCCCCCUGGAGAUUUUUUCCUCGAGCAA [C29A C64U G84U]
CUCUCGGUAGCCAAGUUGGUUUAAGGCGAAAGACUUUAAUUUAUCACUACGAAAUCUUGAGAUCGUGCGUUCGACUCGCCCCCGGGAGAUUUUUUCCUCGAGCAA [C29A G66U]
CUCUCGGUAGCCAAGUUGGUUUAAGGCGAAAGACUUUAAUUUAUCACUACGAAAUCUUGAGAUCGGGCGUUCGACUCGCCCCCAGGAGAUUUUUUCCUCGAGCAA [C29A G84A]
CUCUCGGUAGCCAAGUUGGUUUAAGGCGAAAGACUUUAAUUUAUCACUACGAAAUCUUGAGAUCGGGCGUUCGACUCGCCCCUGGGAGAUUUUUUCCUCGAGCAA [C29A C83U]
CUCUCGGUAGCCAAGUUGGUUUAAGGCGAAAGACUUUAAUUUAUCACUACGAAAUCUUGAGAUCGGGCAUUCGACUCGCCCCCGGGCGAUUUUUUCCUCGAGCAA [C29A G69A A87C]
CUCUCGGUAGCCAAGUUGGUUUAAGGCGAACGCCUUUAAUUUAUCACUACGAAAUCUUGAGAUCGGGCGUUCGACUCGCCCCCGGUAGAUUUUUUCCUCGAGCAA [C29A A31C A33C G86U]
CUCUCGGUAGCCAAGUUGGUUUAAGGCGAAAGACUUUAAUUUAUCACUACGAAUUCUUGAGAUCGGGCGUUCGACUCGCCCCCGGGAGAUUUUUUCCUCGAGCAA [C29A A54U]
CUCUCGGUAGCCAAGUUGGUUUAAGGCUCAAGACUUUAAUUUAUCACUACGAAAUCUUGAGAUCGGGCGUGCGACUCGCACCCGGGACAUUUUUUCCUCGAGCAA [G28U U71G C80A G88C]
CUCUCGGUAGCCAAGUUGGUUUAAGGCGAAAGCCUUUAAUUUAUCACUACGAAAUCUUGAGAUCGGGCGUUCGACUCGCCCCUGGGAGAUUUUUUCCUCGAGCAA [C29A A33C C83U]
CUCUCGGUAGCCAAGUUGGUUUAAGGCUCAAGACUUUAAUUUAUCACUACGAAAUCUGGAGAUCGGGCGUUCGACUCGCCGCCGGGAGAUUUUUUCCUCGAGCAA [G28U U58G C81G]
CUCUCGGUAGCCAAGUUGGUUUAAGGCUCAAGACUUUAAUUUAUCACUACGAAAUCAUGAGAUCGGGCGUUCGACUCGCCCCCGGGAGAUUUUUUCCUCGAGCAA [G28U U57A]

Nonsense suppression, 0.115:
CUCUCGGUAGCCAAGUUGGUUUAAGGCGAAAGACUUUAAUUUAUCACUACGAAAUCUUGAGAUCGGGCGUUCGACUCGCCCCCGAGAGAUUUUUUCCUCGAGCAA [C29A G85A]
